In publication PMC12377709:
Results are given in words; binding and its absence hold for the method and conditions named. Binding seen in cells or lysates may run through a third protein. Some entries that bind do so weakly or less than the wild type. For some assays here: Sequences can lack the tags named with a protein.

Amino acid sequences for entries named in this document (tags omitted). A change or cut given only in a name is not applied to a line headed by its entry. Chains listed by the source or under a name are the forms on record and can include a tag or linker. Residues count along the entry.
UniProt O15392: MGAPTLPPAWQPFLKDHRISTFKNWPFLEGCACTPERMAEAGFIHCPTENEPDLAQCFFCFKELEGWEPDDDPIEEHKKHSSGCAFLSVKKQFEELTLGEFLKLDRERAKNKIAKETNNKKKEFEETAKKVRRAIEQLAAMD
GST-tagged N-terminus and BIR domain of survivin (SVN_(1-90)): residues 1-90 of O15392
GST-tagged C-terminus of survivin (SVN_(90-142)): residues 90-142 of O15392

Assays:
[1] = target: GST-tagged N-terminus and BIR domain of survivin (SVN_(1-90)) (human) (UniProt O15392); test: pull-down; GST-tagged survivin proteins on glutathione Sepharose 4B beads incubated 1 h at RT with 35S-methionine-labelled in vitro translated PSD (reticulocyte lysate); PhosphoImager; only the target purified
[2] = target: GST-tagged full length survivin (human) (UniProt O15392); test: as above
[3] = target: GST-tagged C-terminus of survivin (SVN_(90-142)) (human) (UniProt O15392); test: as above
[4] = target: survivin (endogenous, HeLa) (human (endogenous in HeLa)) (UniProt O15392); test: co-IP; endogenous survivin precipitated from HeLa cell extracts with anti-survivin antibodies on protein A/G Sepharose or dynabeads; blot with anti-PSD
FLAG–survivin (human) = FLAG–survivin (human) (UniProt O15392); test: co-IP; HEK293T transiently co-transfected with FLAG or FLAG–survivin and untagged PSD; anti-FLAG M2 affinity gel, 2 h at 4°C; lysis buffer 50 mM Tris-HCl pH 7.4, 150 mM NaCl, 1 mM EDTA, 1% Triton X-100; blot with anti-PSD
survivin_(T34A) (human) = survivin_(T34A) (human) (UniProt O15392); test: co-IP; IP of survivin T34A and T34E with PSD (Fig. S3A); cells and antibodies not given
survivin_(T34E) (human) = survivin_(T34E) (human) (UniProt O15392); test: as above

B1: ^35S-labelled in vitro translated PSD (enzyme, UniProt Q9UG56 1-409)
chain: MATSVGHRCLGLLHGVAPWRSSLHPCEITALSQSLQPLRKLPFRAFRTDARKIHTAPARTMFLLRPLPILLVTGGGYAGYRQYEKYRERELEKLGLEIPPKLAGHWEVALYKSVPTRLLSRAWGRLNQVELPHWLRRPVYSLYIWTFGVNMKEAAVEDLHHYRNLSEFFRRKLKPQARPVCGLHSVISPSDGRILNFGQVKNCEVEQVKGVTYSLESFLGPRMCTEDLPFPPAASCDSFKNQLVTREGNELYHCVIYLAPGDYHCFHSPTDWTVSHRRHFPGSLMSVNPGMARWIKELFCHNERVVLTGDWKHGFFSLTAVGATNVGSIRIYFDRDLHTNSPRHSKGSYNDFSFVTHTNREGVPMRKGEHLGEFNLGSTIVLIFEAPKDFNFQLKTGQKIRFGEALGSL
modifications: 35S-methionine-labelled
[1]
  binding: binds
[2]
  binding: binds
[3]
  binding: no binding

B2: phosphatidylserine decarboxylase (endogenous, HeLa) (enzyme, UniProt Q9UG56 53-409)
chain: IHTAPARTMFLLRPLPILLVTGGGYAGYRQYEKYRERELEKLGLEIPPKLAGHWEVALYKSVPTRLLSRAWGRLNQVELPHWLRRPVYSLYIWTFGVNMKEAAVEDLHHYRNLSEFFRRKLKPQARPVCGLHSVISPSDGRILNFGQVKNCEVEQVKGVTYSLESFLGPRMCTEDLPFPPAASCDSFKNQLVTREGNELYHCVIYLAPGDYHCFHSPTDWTVSHRRHFPGSLMSVNPGMARWIKELFCHNERVVLTGDWKHGFFSLTAVGATNVGSIRIYFDRDLHTNSPRHSKGSYNDFSFVTHTNREGVPMRKGEHLGEFNLGSTIVLIFEAPKDFNFQLKTGQKIRFGEALGSL
[4]
  binding: binds

B3: catalytically inactive PSD (S378A) (enzyme, UniProt Q9UG56 53-409)
chain: IHTAPARTMFLLRPLPILLVTGGGYAGYRQYEKYRERELEKLGLEIPPKLAGHWEVALYKSVPTRLLSRAWGRLNQVELPHWLRRPVYSLYIWTFGVNMKEAAVEDLHHYRNLSEFFRRKLKPQARPVCGLHSVISPSDGRILNFGQVKNCEVEQVKGVTYSLESFLGPRMCTEDLPFPPAASCDSFKNQLVTREGNELYHCVIYLAPGDYHCFHSPTDWTVSHRRHFPGSLMSVNPGMARWIKELFCHNERVVLTGDWKHGFFSLTAVGATNVGSIRIYFDRDLHTNSPRHSKGSYNDFSFVTHTNREGVPMRKGEHLGEFNLGATIVLIFEAPKDFNFQLKTGQKIRFGEALGSL
FLAG–survivin (human)
  binding: no binding

B4: untagged wild-type PSD (enzyme, UniProt Q9UG56 53-409)
chain: IHTAPARTMFLLRPLPILLVTGGGYAGYRQYEKYRERELEKLGLEIPPKLAGHWEVALYKSVPTRLLSRAWGRLNQVELPHWLRRPVYSLYIWTFGVNMKEAAVEDLHHYRNLSEFFRRKLKPQARPVCGLHSVISPSDGRILNFGQVKNCEVEQVKGVTYSLESFLGPRMCTEDLPFPPAASCDSFKNQLVTREGNELYHCVIYLAPGDYHCFHSPTDWTVSHRRHFPGSLMSVNPGMARWIKELFCHNERVVLTGDWKHGFFSLTAVGATNVGSIRIYFDRDLHTNSPRHSKGSYNDFSFVTHTNREGVPMRKGEHLGEFNLGSTIVLIFEAPKDFNFQLKTGQKIRFGEALGSL
FLAG–survivin (human)
  binding: binds

B5: PSD (co-immunoprecipitation with the survivin T34 mutants, Fig. S3A) (enzyme, UniProt Q9UG56 53-409)
chain: IHTAPARTMFLLRPLPILLVTGGGYAGYRQYEKYRERELEKLGLEIPPKLAGHWEVALYKSVPTRLLSRAWGRLNQVELPHWLRRPVYSLYIWTFGVNMKEAAVEDLHHYRNLSEFFRRKLKPQARPVCGLHSVISPSDGRILNFGQVKNCEVEQVKGVTYSLESFLGPRMCTEDLPFPPAASCDSFKNQLVTREGNELYHCVIYLAPGDYHCFHSPTDWTVSHRRHFPGSLMSVNPGMARWIKELFCHNERVVLTGDWKHGFFSLTAVGATNVGSIRIYFDRDLHTNSPRHSKGSYNDFSFVTHTNREGVPMRKGEHLGEFNLGSTIVLIFEAPKDFNFQLKTGQKIRFGEALGSL
survivin_(T34A) (human)
  binding: binds
survivin_(T34E) (human)
  binding: binds
